These results are taken from article PMC11367644, “Structural basis for TNIP1 binding to FIP200 during mitophagy” (The Journal of Biological Chemistry, 2024).

Amino acid sequences for entries named in this document (tags omitted). A change or cut given only in a name is not applied to a line headed by its entry. Chains listed by the source or under a name are the forms on record and can include a tag or linker. Residues count along the entry.
FIP200 claw domain (1490-1594) (Q8TDY2, residues 1490-1594): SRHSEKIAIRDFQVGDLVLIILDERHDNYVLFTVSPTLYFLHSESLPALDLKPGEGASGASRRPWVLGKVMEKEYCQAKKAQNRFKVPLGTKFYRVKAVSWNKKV
FIP200 claw domain (1490-1594) K1569E (Q8TDY2, form named): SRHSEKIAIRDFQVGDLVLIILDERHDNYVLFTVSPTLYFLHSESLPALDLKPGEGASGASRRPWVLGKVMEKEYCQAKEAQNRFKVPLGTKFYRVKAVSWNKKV
FIP200 claw domain (1490-1594) K1568E (Q8TDY2, form named): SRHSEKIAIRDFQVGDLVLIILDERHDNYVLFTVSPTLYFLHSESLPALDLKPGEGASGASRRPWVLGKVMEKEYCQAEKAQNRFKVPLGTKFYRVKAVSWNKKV
FIP200 claw domain (1490-1594) Y1564A (Q8TDY2, form named): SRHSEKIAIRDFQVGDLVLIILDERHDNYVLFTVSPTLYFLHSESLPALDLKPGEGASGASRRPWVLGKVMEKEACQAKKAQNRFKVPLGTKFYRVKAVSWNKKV
FIP200 claw domain (1490-1594) R1573E (Q8TDY2, form named): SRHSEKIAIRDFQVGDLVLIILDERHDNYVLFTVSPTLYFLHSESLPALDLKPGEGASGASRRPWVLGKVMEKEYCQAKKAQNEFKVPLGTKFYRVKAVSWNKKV
FIP200 claw domain (1490-1594) R1584A (Q8TDY2, form named): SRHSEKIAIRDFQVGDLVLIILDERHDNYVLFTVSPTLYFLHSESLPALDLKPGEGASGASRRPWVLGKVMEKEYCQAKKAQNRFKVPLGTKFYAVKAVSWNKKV
FIP200 claw domain (1490-1594) K1568A (Q8TDY2, form named): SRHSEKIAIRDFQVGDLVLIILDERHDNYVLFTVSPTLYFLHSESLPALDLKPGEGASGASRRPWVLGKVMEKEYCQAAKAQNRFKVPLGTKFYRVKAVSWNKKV
FIP200 claw domain (1490-1594) F1574A (Q8TDY2, form named): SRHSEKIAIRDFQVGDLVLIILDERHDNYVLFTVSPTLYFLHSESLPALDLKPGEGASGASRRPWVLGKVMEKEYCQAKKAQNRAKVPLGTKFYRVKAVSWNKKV
FIP200 claw domain (1490-1594) K1569A (Q8TDY2, form named): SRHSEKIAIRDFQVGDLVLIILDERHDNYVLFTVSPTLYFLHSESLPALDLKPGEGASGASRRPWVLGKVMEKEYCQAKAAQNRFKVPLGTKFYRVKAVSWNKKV
FIP200 claw domain (1490-1594) F1582A (Q8TDY2, form named): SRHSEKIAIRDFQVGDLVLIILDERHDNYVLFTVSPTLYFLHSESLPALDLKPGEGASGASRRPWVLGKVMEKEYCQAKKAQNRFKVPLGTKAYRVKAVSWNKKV

No constants are given. Whether binding was seen depends on the method and setting. Some results given as binding are weak or reduced against the parent protein; the word gives no strength.

Assay in all cases: ITC; peptide (4 mM) injected into FIP200 claw protein (0.25 mM); 20 °C; buffer B (50 mM NaH2PO4, 150 mM NaCl, pH 7.0); single binding site model; both purified
For test [1], the target named is T1, FIP200 claw domain (1490-1594) (human, UniProt Q8TDY2 1490-1594).
T1 construct: the ITC N counts peptide per claw chain; also called FIP200 claw domain WT; WT; source: E. coli Rosetta (DE3), purified (Ni-NTA, Superdex 200, HiTrap SP FF); not shown: SUMO, N-terminal, cleaved

In test [2] the target is FIP200 claw domain (1490-1594) K1569E (human) (UniProt Q8TDY2).
The target of test [3] is FIP200 claw domain (1490-1594) K1568E (human) (UniProt Q8TDY2).
Test [4] has as its target FIP200 claw domain (1490-1594) Y1564A (human) (UniProt Q8TDY2).
For test [5], the target named is FIP200 claw domain (1490-1594) R1573E (human) (UniProt Q8TDY2).
Test [6] concerns the target FIP200 claw domain (1490-1594) R1584A (human) (UniProt Q8TDY2).
Test [7] concerns the target T2, FIP200 claw domain (1490-1594) K1568A (human, UniProt Q8TDY2 1490-1594, K1568A).
T2 construct: source: E. coli Rosetta (DE3), purified (Ni-NTA, Superdex 200, HiTrap SP FF); not shown: SUMO, N-terminal, cleaved

Test [8] deals with FIP200 claw domain (1490-1594) F1574A (human) (UniProt Q8TDY2).
Test [9] concerns the target FIP200 claw domain (1490-1594) K1569A (human) (UniProt Q8TDY2).
For test [10], the target named is FIP200 claw domain (1490-1594) F1582A (human) (UniProt Q8TDY2).

B1: TNIP1_FIR^long peptide (unmodified) (peptide)
peptide: SSGTSSEFEVVTPEEQ
Turning to B1, the binding result in test [1] is listed as “binds weakly”.

B2: TNIP1_pS123 peptide (peptide)
peptide: SSGTSSEFEVV
modifications: phosphoserine at 123 (SSGTS-pS-EFEVV)
For B2, the binding entry in test [2] is on record as “no binding (tested: 4 mM peptide into 0.25 mM protein)”; in [3], “no binding (tested: 4 mM peptide into 0.25 mM protein)”; in [4] it was “no binding (tested: 4 mM peptide into 0.25 mM protein)”; in test [5], “no binding (tested: 4 mM peptide into 0.25 mM protein)”; in [6] it was “no binding (tested: 4 mM peptide into 0.25 mM protein)”; in test [7], “binds weakly”. The binding result in test [8], in [9] and in [10] was “no binding (tested: 4 mM peptide into 0.25 mM protein)” throughout.
